Test results: the supplement of paper PMC7125110
± gives the standard error. This sample is rich in variants without activity.

B1: glmS ribozyme (parent)
chain: AUAAAAGCGCCAGAACUACAGAAAUGUAGUUGACGAGGAGGAGGUUUAUCGAAUUUUCGGCGGAUGCCUCCAAA

Key:
Conditions in all cases: with glucosamine-6-phosphate
glucosamine-6-phosphate [1] = variants of: B1; assay: self-cleavage kobs at 40 uM GlcN6P; higher = faster cleavage; RNA array
Method in brief: (§1)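 Ribozyme variants carrying barcodes were transcribed in situ on sequenced MiSeq chips by E. coli RNA polymerase and tracked at 37 °C with a hybridised Cy3 probe. They were exposed to 40 μM to 10 mM glucosamine-6-phosphate in HEPES/KCl/Mg(OAc)2 buffer. kobs came from exponential decay fits of normalised per-tile medians, and kcat and KM from weighted Michaelis–Menten fits.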

glucosamine-6-phosphate [2] = variants of: B1; assay: self-cleavage kobs at 640 uM GlcN6P; higher = faster cleavage; RNA array
Method in brief: as §1

glucosamine-6-phosphate [3] = variants of: B1; assay: self-cleavage kobs at 160 uM GlcN6P; higher = faster cleavage; RNA array
Method in brief: as §1

glucosamine-6-phosphate [4] = variants of: B1; assay: self-cleavage kobs at 2500 uM GlcN6P; higher = faster cleavage; RNA array
Method in brief: as §1

glucosamine-6-phosphate [5] = variants of: B1; assay: self-cleavage kobs at 10000 uM GlcN6P; higher = faster cleavage; RNA array
Method in brief: as §1

Variant | self-cleavage kobs at 40 uM GlcN6P (glucosamine-6-phosphate [1]) [s⁻¹] | self-cleavage kobs at 640 uM GlcN6P (glucosamine-6-phosphate [2]) [s⁻¹] | self-cleavage kobs at 160 uM GlcN6P (glucosamine-6-phosphate [3]) [s⁻¹] | self-cleavage kobs at 2500 uM GlcN6P (glucosamine-6-phosphate [4]) [s⁻¹] | self-cleavage kobs at 10000 uM GlcN6P (glucosamine-6-phosphate [5]) [s⁻¹]
AUAAAAGCGCCAGAACUACAGAAAUGUAGGUGACGAGGAGGGGGUUUAUCGAAUUUUUGGCGGAUGCCUCCAAA | < 1e-05 |  |  |  | 
AUAAAAGCGCCAGAACUACAGAAAUGUAGGUGACGAGGAGGAGGUUUAUCGAAUUUUCGGCGUAUGCCUCCAAA | < 1e-05 | < 1e-05 | < 1e-05 | < 1e-05 | < 1e-05
AUAAAAGCGCCAGAACUACAGAAAUGUAGGUGACUAGGAGGAGGUUUAUCGAAUUUUCGGCGGAUGCCUCCAAA | < 1e-05 | < 1e-05 | < 1e-05 | < 1e-05 | < 1e-05
AUAAAAGCGCCAGAACUACAGAAAUGUAGGUGACGAGGAGGAGGUUUAUCGAAUUUGCGGCGGAUGCCUCCAAA | < 1e-05 |  |  |  | 
AUAAAAGCGCCAGAACUACAGAAAUGUAGUAGGCGAGGUGGAAGUUUUUCGAAUUUUCGGCGGAUGCCUCCAAA | < 1e-05 |  |  |  | < 1e-05
AUAAAAGCGCCAGAACUACAGAAAUGUAGGUGACGAGGAGGAGGUUUAUCGUAUUUUCGGCGGAUGCCUCCAAA | < 1e-05 |  | < 1e-05 | 4.14e-05 ± 1.5e-05 | 5.6e-05 ± 1e-05
AUAAAAGCGCCAGAACUACAGAAAUGUAGGUGACGAGGAGGAGGUUUAUCGCAUUUUCGGCGGAUGCCUCCAAA | < 1e-05 |  |  |  | 
AUAAAAGCGCCAGAACUACAGAAAUGUAGGUGACGAGGAGGACGUUUAUCGAAUUUUCGGCGAAAGCCUCCAAA | < 1e-05 |  |  |  | < 1e-05
AUAAAAGCGCCAGAACUACAGAAAUGUAGGUGACGAGGAGGAGGUUUAUCGAACUUUCGGCGGAUGCCUCCAAA | 0.000148 ± 2.5e-05 | 0.00235 ± 0.00041 | 0.000617 ± 0.00011 | 0.00471 ± 0.0008 | 0.00714 ± 0.001
AUAAAAGCGCCAGAACUACAGAAAUGUAGGUGACGAGGAGGAGGUUUAUCGAAUUUUCGGCGGAUGCCUUCAAA | 0.000299 ± 3.2e-05 | 0.00108 ± 0.00014 | 0.000471 ± 8.6e-05 |  | 
AUAAAAGCGCCAGAACUACAGAAAUGUAGGUGACGAGGAGUAGGUUUAUCGAAUUUUCGGCGGAUGCAUCCAAA | < 1e-05 |  |  |  | 
AUAAAAGCGCCAGAACUACAGAAAUGUAGGUGACGAGGAGGUUGUUUUUCGAAUUUUCUGCGGAUGCCUCCAAA | < 1e-05 |  |  |  | 
AUAAAAGCGCCAGAACUACAGAAAUGUAGGUGACGAGGAGGAGGUUUAUCGCAUUUUCGGCUGAUGCCUCCAAA | < 1e-05 |  |  |  | < 1e-05
AUAAAAGCGCCAGAACUACAGAAAUGUAGGUGACGAGGAGGAGGUUUAUCGAGUUUUCGGCGGAUGCCUCCAAA | 0.000307 ± 5.3e-05 | 0.00172 ± 0.0004 | 0.00064 ± 0.00013 | 0.00534 ± 0.00076 | 0.0151 ± 0.0037
